# Data taken from a collection of fitness landscapes (doi:10.1038/s41467-024-54723-y).
# Over roughly 18,000 sequences, “TetR repression strength (sort-seq, GFP reporter)” has its median near 0.23; the highest 2% begin near 0.68. The list shows a part of the results.
# Biological target: TetR (class B, Tn10) (UniProt P04483)
# Assay: TetR repression strength (sort-seq, GFP reporter) (relative to tetO2 = 1); higher = stronger repression
# Conditions: E. coli
# Method in brief: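 Repression strength was calculated by subtracting the read-weighted mean bin from the top bin index plus one and dividing by the unaltered operator's value. The plasmid library was low-copy in E. coli SIG10-MAX, with eight randomized operator positions between a constitutive promoter and sfGFP and constitutive TetR. Cultures grew 5 h at 37 °C in LB containing 50 µg/mL chloramphenicol before 10^6 cells were sorted by FACS into 13 fluorescence bins, each sequenced on Illumina. Three independent transformations were averaged for members having ≥30 reads in all replicates and a CV ≤0.5.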
# Chain of UniProt P04483 (P04483 whole entry): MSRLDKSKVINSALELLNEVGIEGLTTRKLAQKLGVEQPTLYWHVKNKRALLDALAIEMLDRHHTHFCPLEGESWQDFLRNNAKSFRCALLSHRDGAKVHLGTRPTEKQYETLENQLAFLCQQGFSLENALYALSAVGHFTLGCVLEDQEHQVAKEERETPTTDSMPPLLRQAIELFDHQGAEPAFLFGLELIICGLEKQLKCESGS
row,Sequence,TetR repression strength
1,TCCCCCGGAGTCGGTGAGA,0.0852
2,TCCCACAAAGTCCTCGAGA,0.402
3,TCCCTTAGAGTAGGCGAGA,0.0259
4,TCCCAGCGAGTAGAAGAGA,0.334
5,TCCCGCGGAGTGCTGGAGA,0.201
6,TCCCTTTAAGTTCTCGAGA,0.271
7,TCCCAACCAGTTGTAGAGA,0.229
8,TCCCGGTGAGTATCAGAGA,0.188
9,TCCCGACCAGTCGGTGAGA,0.154
10,TCCCGAGCAGTACCCGAGA,0.14
11,TCCCTCACAGTTCGAGAGA,0.207
12,TCCCAACCAGTACGTGAGA,0.207
13,TCCCGGACAGTGATTGAGA,0.254
14,TCCCTAAGAGTGTCTGAGA,0.267
15,TCCCCATTAGTTGCAGAGA,0.273
16,TCCCGATCAGTTGTCGAGA,0.279
17,TCCCTGCGAGTAGTGGAGA,0.274
18,TCCCAGAAAGTGTGAGAGA,0.472
19,TCCCATGAAGTTCGAGAGA,0.193
20,TCCCAGATAGTATGGGAGA,0.0319
21,TCCCGTCGAGTCCAGGAGA,0.182
22,TCCCTTGCAGTTACCGAGA,0.874
23,TCCCGGCGAGTTGGTGAGA,0.255
24,TCCCACGGAGTGATCGAGA,0.294
25,TCCCGTATAGTTATTGAGA,0.175
26,TCCCGATGAGTTAAGGAGA,0.797

row,Sequence,TetR repression strength
1,TCCCGGATAGTGAGGGAGA,0.134
2,TCCCTACCAGTGCGTGAGA,0.403
3,TCCCTATTAGTTCGCGAGA,0
4,TCCCAGTAAGTCTTGGAGA,0.148
5,TCCCTAACAGTGATGGAGA,0.278
6,TCCCAGGGAGTTTGTGAGA,0.0436
7,TCCCCGGTAGTTCGCGAGA,0.638
8,TCCCTGTGAGTATAAGAGA,0.264
9,TCCCTTCCAGTTAGGGAGA,0.24
10,TCCCCAGTAGTTGGAGAGA,0
11,TCCCTATCAGTGGTGGAGA,0.402
12,TCCCACGTAGTGTATGAGA,0.0186
13,TCCCCAGGAGTGATGGAGA,0.176
14,TCCCCGTTAGTCTCTGAGA,0.65
15,TCCCCGCTAGTCTTAGAGA,0.305
16,TCCCGGCTAGTTTGGGAGA,0.0849
17,TCCCCTCGAGTGTTTGAGA,0.92
18,TCCCTTTAAGTCTTGGAGA,0.194
19,TCCCTGTTAGTGCCAGAGA,0.193
20,TCCCACACAGTCCTCGAGA,0.417
21,TCCCTGGAAGTAACAGAGA,0.235
22,TCCCGGTAAGTATGGGAGA,0.157
23,TCCCGTGCAGTTAGTGAGA,0.159
24,TCCCAATTAGTGTTAGAGA,0.421
25,TCCCAGCTAGTAAGAGAGA,0.254
26,TCCCAGCTAGTTGAGGAGA,0.255

row,Sequence,TetR repression strength
1,TCCCAATCAGTACGTGAGA,0.213
2,TCCCTTACAGTACTCGAGA,0.456
3,TCCCACGCAGTAGTCGAGA,0.0565
4,TCCCCCTAAGTAGGGGAGA,0.239
5,TCCCGGGCAGTGCTCGAGA,0.298
6,TCCCGGAGAGTCTTGGAGA,0.34
7,TCCCACAAAGTGGCGGAGA,0.306
8,TCCCAATTAGTGCAAGAGA,0.301
9,TCCCACAAAGTAGGGGAGA,0.213
10,TCCCGATAAGTGGATGAGA,0.104
11,TCCCCGATAGTGCTGGAGA,0.253
12,TCCCGGAGAGTGCTGGAGA,1.07
13,TCCCGTTCAGTCGATGAGA,0.224
14,TCCCTTATAGTTCTTGAGA,0.311
15,TCCCCTGCAGTTTTAGAGA,0.352
16,TCCCGGCTAGTTGTCGAGA,0.171
17,TCCCGCGTAGTAGCTGAGA,0.301
18,TCCCACGAAGTTTGTGAGA,0.344
19,TCCCTTTAAGTAACGGAGA,0.0871
20,TCCCGAGGAGTGAAGGAGA,0.26
21,TCCCCGAGAGTGTTCGAGA,0.172
22,TCCCACATAGTTTAAGAGA,0.187
23,TCCCGCGGAGTCGACGAGA,0.125
24,TCCCGGGTAGTGGTCGAGA,0.443
25,TCCCGACGAGTACCGGAGA,0.207
26,TCCCTCTTAGTCCGTGAGA,0.461

row,Sequence,TetR repression strength
1,TCCCTCCCAGTGGCTGAGA,0.255
2,TCCCTCCTAGTGCAGGAGA,0.259
3,TCCCGATCAGTTCTTGAGA,0.252
4,TCCCTAGCAGTGGTGGAGA,0.27
5,TCCCGCTAAGTAGGTGAGA,0.017
6,TCCCTCGCAGTTCAAGAGA,0.363
7,TCCCGTTCAGTGCGAGAGA,0.0532
8,TCCCCTTGAGTATGCGAGA,1.05
9,TCCCCGCCAGTTGATGAGA,0.349
10,TCCCCGCCAGTCCAGGAGA,0.104
11,TCCCTATCAGTGGCCGAGA,0.724
12,TCCCCGTGAGTCTAGGAGA,0.101
13,TCCCGTGCAGTTTAAGAGA,0.227
14,TCCCACATAGTCGGGGAGA,0.245
15,TCCCGGACAGTGTGTGAGA,0.2
16,TCCCGGTCAGTTAGGGAGA,0.281
17,TCCCGCGAAGTGGAGGAGA,0.14
18,TCCCAGGGAGTCGACGAGA,0.223
19,TCCCTGTCAGTGCTGGAGA,0.361
20,TCCCGGGAAGTAAGAGAGA,0.172
21,TCCCACTTAGTACGGGAGA,0.24
22,TCCCGTAGAGTTGATGAGA,0.551
23,TCCCCACTAGTTTAAGAGA,0.398
24,TCCCGCCGAGTTGGAGAGA,0.274
25,TCCCTCAGAGTCTCGGAGA,0.104
26,TCCCGGACAGTAAGCGAGA,0.622

row,Sequence,TetR repression strength
1,TCCCATAAAGTTTTTGAGA,0.344
2,TCCCGGTGAGTTCCTGAGA,0.152
3,TCCCGTGAAGTTAATGAGA,0.401
4,TCCCTACTAGTTCGAGAGA,0.354
5,TCCCTTTTAGTGATCGAGA,0.247
6,TCCCGGGAAGTGTCTGAGA,0.355
7,TCCCCGGAAGTTTGAGAGA,0.218
8,TCCCTTTTAGTGTCCGAGA,0.444
9,TCCCGGTGAGTCGGCGAGA,0.2
10,TCCCGTTGAGTAGTCGAGA,0.0303
11,TCCCCGTAAGTATTGGAGA,0.247
12,TCCCTCTAAGTAAAAGAGA,0.183
13,TCCCTTAGAGTGTTGGAGA,0.108
14,TCCCGGTGAGTAGCGGAGA,0.208
15,TCCCGTGGAGTAGGCGAGA,0.22
16,TCCCCATAAGTTGGGGAGA,0.367
17,TCCCCTTGAGTGACCGAGA,0.344
18,TCCCCGGGAGTTGATGAGA,0.115
19,TCCCTGAAAGTGACAGAGA,0.489
20,TCCCGTTGAGTGAGGGAGA,0.397
21,TCCCACCCAGTCTCAGAGA,0.341
22,TCCCAAGAAGTTGCCGAGA,0.137
23,TCCCGGATAGTGGGTGAGA,0.0875
24,TCCCTATTAGTACTGGAGA,0.291
25,TCCCTCGGAGTTATGGAGA,0.41
26,TCCCCGCAAGTGATAGAGA,0.554

row,Sequence,TetR repression strength
1,TCCCCTTCAGTTGATGAGA,0.415
2,TCCCGGCAAGTTAGCGAGA,0.224
3,TCCCACCGAGTAGTCGAGA,0.416
4,TCCCCGTCAGTTAGTGAGA,0.194
5,TCCCATGCAGTTAGGGAGA,0.281
6,TCCCTACGAGTGGTGGAGA,0.304
7,TCCCTGCTAGTTCTAGAGA,0.243
8,TCCCGGGGAGTATTAGAGA,0.216
9,TCCCTGCAAGTCCTTGAGA,0.328
10,TCCCTATGAGTCTTGGAGA,0.203
11,TCCCGGTCAGTGGCGGAGA,0.153
12,TCCCTTGCAGTTATAGAGA,0.461
13,TCCCTTTAAGTTCTGGAGA,0.226
14,TCCCCGGGAGTGGCGGAGA,0.0763
15,TCCCCACTAGTGTTAGAGA,0.259
16,TCCCACTCAGTATGTGAGA,0.108
17,TCCCTGCTAGTACTCGAGA,0.211
18,TCCCGCTTAGTGCGCGAGA,0.234
19,TCCCGTTCAGTGCCAGAGA,0.53
20,TCCCTTTTAGTCGAAGAGA,0.139
21,TCCCCTAAAGTGAGGGAGA,0.0606
22,TCCCCGTGAGTCAGGGAGA,0.152
23,TCCCCAGAAGTCAAGGAGA,0.355
24,TCCCAGCGAGTAGTCGAGA,0.256
25,TCCCGCCTAGTAGGCGAGA,0.391
26,TCCCGTGGAGTTATTGAGA,0.184

row,Sequence,TetR repression strength
1,TCCCAGGGAGTCCATGAGA,0.104
2,TCCCGAAAAGTGGTCGAGA,0.182
3,TCCCTTTAAGTATCTGAGA,0.142
4,TCCCGGAAAGTAAGTGAGA,0.161
5,TCCCCCGGAGTAGTGGAGA,0.335
6,TCCCGTCTAGTTAGAGAGA,0.224
7,TCCCGGGGAGTTACTGAGA,0.305
8,TCCCGGCCAGTAAAAGAGA,0.194
9,TCCCAATAAGTTCGGGAGA,0.306
10,TCCCTTGTAGTCGCGGAGA,0.0226
11,TCCCGAGCAGTTGGTGAGA,0.317
12,TCCCGGGCAGTAGCAGAGA,0.401
13,TCCCTTGTAGTAGGCGAGA,0.205
14,TCCCGGGGAGTTGAGGAGA,0.171
15,TCCCTGGAAGTTAGGGAGA,0.399
16,TCCCGGCGAGTGGAAGAGA,0.379
17,TCCCAGTAAGTCAGAGAGA,0.066
18,TCCCAACGAGTGTTCGAGA,0.0549
19,TCCCGGTCAGTGAAAGAGA,0.692
20,TCCCGGCAAGTGTTAGAGA,0.297
21,TCCCTGCTAGTTCCAGAGA,0.19
22,TCCCTGTAAGTGACGGAGA,0.796
23,TCCCTAGGAGTTTTAGAGA,0.292
24,TCCCGAGAAGTGGAGGAGA,0.216
25,TCCCTCGTAGTGTGGGAGA,0.159
26,TCCCCGAGAGTGAAGGAGA,0

row,Sequence,TetR repression strength
1,TCCCCTGCAGTAATGGAGA,0.0455
2,TCCCTTGCAGTTTGTGAGA,0.541
3,TCCCTTGCAGTGACAGAGA,0.649
4,TCCCGGATAGTAATAGAGA,0.415
5,TCCCACTCAGTGCTAGAGA,0.611
6,TCCCCTCAAGTGGCTGAGA,0.287
7,TCCCTTCAAGTTCGCGAGA,0.308
8,TCCCATTGAGTGGGGGAGA,0.144
9,TCCCGCGTAGTTCGCGAGA,0.113
10,TCCCTACAAGTTTCGGAGA,0.416
11,TCCCACTCAGTCAGGGAGA,0.182
12,TCCCGGGCAGTCAAGGAGA,0.315
13,TCCCACCTAGTGTTAGAGA,0.579
14,TCCCGTGAAGTGTGCGAGA,0.0194
15,TCCCACGAAGTAGGCGAGA,0.0447
16,TCCCAGTCAGTCTTTGAGA,0.726
17,TCCCACTAAGTATCCGAGA,0.18
18,TCCCTTACAGTAGCTGAGA,0.3
19,TCCCGATCAGTTCTAGAGA,0.344
20,TCCCTTGGAGTCCGTGAGA,0.171
21,TCCCTGTGAGTCTGAGAGA,0.351
22,TCCCAGAGAGTGGGGGAGA,0.192
